Paper PMC9861830, “Hydroxylated Coumarin-Based Thiosemicarbazones as Dual Antityrosinase and Antioxidant Agents” (International Journal of Molecular Sciences, 2023)

Test: Potentiometric and spectrophotometric titrations (protonation constants, speciation)
Format: physicochemical
Details: 25 °C, NaCl 0.1 M; fifth line, printed L^3-+4H^+⇌H4L^2+
Description: Potentiometric titrations were performed in a thermostated vessel at 25 °C in 0.1 M ionic strength (NaCl) using a Mettler-Toledo Seven Compact pH/Ion-meter and equipped with a Mettler-Toledo InLab Micro Pro combined glass electrode with an integrated temperature probe. The glass electrode was calibrated daily and checked using the GLEE software package. UV–visible (UV–Vis) measurements were carried out with an Agilent Cary 60 spectrophotometer using a 0.1 cm quartz cuvette. Protonation constants of the studied molecules were determined via spectrophotometric and potentiometric titrations. Solutions of ligands were prepared daily by dissolving a suitable amount of the compound in DMSO (concentration ≈ 12 mM) prior to the required dilution in 0.1 M NaCl (final DMSO content 1% V/V, concentration ≈ 1.2∙10^−4 M). Four HCl equivalents for T1, five for T2–4, and six for T5–6 were added before titrating with an NaOH standard solution. Potentiometric and spectrophotometric data were simultaneously analysed using the Hyperquad 2006 software package. Speciation diagrams were obtained using Hyss 2009 program with the spectrophotometric data. The number of linearly independent absorbing species was found by applying the eigenvalue analysis to the absorbance data matrix.

| SMILES | Logβ | pK |
| --- | --- | --- |
| C/C(=N\NC(N)=S)c1cc2cc(O)c(O)cc2oc1=O [T5, (1E)-2-(1-(6,7-dihydroxy-2-oxo-2H-chromen-3-yl)ethylidene)hydrazine-1-carbothioamide] | 33.2 (1) | 3.7 |
| C/C(=N\NC(N)=S)c1cc2ccc(O)c(O)c2oc1=O [T6, (1E)-2-(1-(7,8-dihydroxy-2-oxo-2H-chromen-3-yl)ethylidene)hydrazine-1-carbothioamide] | 33.0 (1) | 3.5 |
